Experimental data: PubChem BioAssay AID1508623 (National Center for Advancing Translational Sciences (NCATS), 2021)
In all, about 48,000 compounds went through this assay and about 450 (0.94%) were called active. Inconclusive results (about 19%) are left out. Calls come from the whole dose curve; as a rule, active = well fitted inhibition curve with a large enough effect; inconclusive = small, poorly fitted or top-dose-only effect; inactive = no such curve, though single readings can be large or run the other way. The list shows a part of the results.

Assay: Primary qHTS for Identification of Small Molecule Inhibitors of Huntingtin Promoter Activity; note: nearly all actives have a fitted effect of over 50% in size
Details: HEK293 HTT promoter firefly luciferase reporter (activity 0% = vehicle and -100% = no light), 24 h; series mostly up to 57.5 µM; activity change, negative = inhibition: at the top concentration
Procedure, shortened: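 HEK293 Fluc reporter, 2,500 cells/well, 24 h pre-culture; cpds up to 57.5 uM final, 24 h 37 degrees C; Dual-Glo, 10 min RT; normalized vehicle = 0%, zero RLU = -100%.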

Activity change, negative = inhibition, inactive:
Cc1ccc(CN(Cc2ccco2)C(=O)c2oc3c(C)c(C)ccc3c2C)cc1 -26.8%
C=C1C(=CC=C2CCCC3(C)[C@@H]([C@H](C)C=CC=CC(O)(CC)CC)CC[C@@H]23)C[C@@H](O)C[C@@H]1O (some centres not stated) -11.2%
COCCNC(=O)c1cc2c(Cl)nc3ccc(C)cc3c2s1 2.4%
COc1cccc(N(CC(=O)N2CCC(C)CC2)S(=O)(=O)c2ccc(C)cc2)c1 -23.6%
COc1cc(OC)c(Nc2ncnc3onc(-c4cccc(Cl)c4)c23)cc1Cl -16.7%
CCC(C)NC(=O)CSc1nc2cc3c(cc2c(=O)n1CCCC(=O)NCc1ccc2c(c1)OCO2)OCO3 (configuration not stated) -13.6%
CCCCOc1ccc(C2=NC(c3ccccc3)=Nc3ccc(OC)cc3N2)cc1 15.5%
Cn1c(=O)c2c(-c3ccccc3Br)n(CCc3ccccc3)cc2n(C)c1=O -14.8%
Clc1ccccc1Cc1cn2cc(-c3ccccc3)nc2s1 -9.27%
O=C1O[C@H]([C@@H](O)CO)C(O)=C1O 5.8%
C=CCc1c(C)nc2nc(SCC(=O)Nc3ccc(OCC)cc3)nn2c1C 1.66%
Cc1cc(C)cc(NC(=O)C2(c3cccs3)CCOCC2)c1 -4.06%
CC(C)c1ccc(Nc2ncnc3c2c(-c2ccccc2)cn3-c2ccccc2)cc1 -11.9%
COc1ccccc1NC(=O)CSc1nnc2c3ccccc3n(C)c2n1 -9.31%
Clc1cccc(-n2ncc3c(N4CCN(Cc5ccccc5)CC4)ncnc32)c1 -9.6%
COc1cccc(CNC(=O)Cn2ccc3cc(S(=O)(=O)N4CCC(C)CC4)ccc32)c1 -17%
Cc1ccc(-c2nc3cccnc3s2)cc1NC(=O)Cc1ccccc1 50.5%
Cc1cccc(C)c1OCC(=O)N[C@@H](Cc1ccccc1)[C@@H](O)C[C@H](Cc1ccccc1)NC(=O)[C@H](C(C)C)N1CCCNC1=O -18.8%
COc1ccc(NC(=O)Cn2ccn(-c3ccccc3)c(=O)c2=O)cc1 -5.17%
COc1ccccc1Nc1ncnc2c1nc1n2CCCC1 34.3%
Cc1ccc(-n2nc(C)c3c(C(=O)Nc4ccc(Br)c(C)c4)cc(C)nc32)cc1 -7.72%
COCCNC(=O)CSc1nc(-c2ccc(C)cc2)nc2c1c(=O)n(C)c(=O)n2C -6.19%
COC(=O)C1=C(C)NC(=O)C1(NC(=O)c1ccccc1C)C(F)(F)F (configuration not stated) -2.47%
COc1cccc(-c2nc(SCC(=O)N3CCc4ccccc43)c3c(=O)n(C)c(=O)n(C)c3n2)c1 -0.553%
COc1ccccc1NC(=O)c1c(NC(=O)c2ccccc2Cl)sc2c1CCC2 0.195%
CCOc1ccc(CNC(=O)CCCn2c(=O)c3cccn3c3ccc(F)cc32)cc1 -0.103%
Cn1c(=O)c(=O)n(C)c2cc(NC(=O)c3ccccc3Br)ccc21 3.1%
